# Reference: PubChem BioAssay AID1347073 (National Center for Advancing Translational Sciences (NCATS), 2019)
# The whole screen tested about 45,000 compounds, of which about 200 (0.44%) were called active. Another 7% or so got no clear call; they are omitted. The call rests on the fitted dose curve; in most records, active means well fitted activation curve with a large enough effect; inconclusive means small, poorly fitted or top-dose-only effect; inactive means no such curve, though single readings can be large or run the other way. The list shows a part of the results.
# Assay: qHTS of TDP-43 Inhibitors: NCGC Sytravon Library Screen; further: 0% is about no effect; nearly all actives have a fitted effect of over 55% in size
# Conditions: yeast TDP-43 toxicity rescue, BacTiter-Glo growth, 24 h; series mostly up to 46.1 µM; growth rescue (activation): at the top concentration
# Procedure, shortened: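 TDP-43-expressing yeast, pregrown in raffinose, seeded at OD600 0.02 in galactose medium with compound for 24 hr at 30 deg C. Growth read by BacTiter-Glo luminescence, so rescue of toxicity appears as activation.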
row,SMILES,growth rescue (activation)
1,Cc1cc(O)ccc1Nc1cc(-c2cccc(N)c2)ncn1,inactive: 0.282%
2,CCOC(=O)c1cc(-c2ccc(/C=C3/C(=O)N(c4ccc(C(=O)O)cc4)N=C3C)o2)ccc1Cl,inactive: 12.2%
3,COc1ccccc1C(NC(C)=O)c1cc(Cl)c2cccnc2c1O (stereo not drawn),inactive: 3.32%
4,CCOC(=O)/C(=C/c1cn(C)c2ccccc12)NC(=O)c1ccccc1,inactive: 1.43%
5,COC(C(=O)N/N=C/c1ccc(OCC(=O)N2CCOCC2)cc1)c1ccccc1 (stereo not drawn),inactive: -0.266%
6,COc1ccccc1CNC(=O)CCNC(=O)c1ccco1,inactive: -16.8%
7,COc1cccc(CN2CCC(C(=O)N3CCN(Cc4ccc5c(c4)OCO5)CC3)CC2)c1,inactive: -26.7%
8,CCOC(=O)c1csc(-c2ccc(OC)c(OC)c2)n1,inactive: 13.6%
9,N#CCOc1ccc(C2=NO[C@@H]3[C@@H]4C[C@@H]([C@H]5C(=O)N(c6ccc7c(c6)OCO7)C(=O)[C@@H]45)[C@H]23)cc1,inactive: 6.77%
10,CCCN1Cc2cccc(C(=O)N3CCN(c4ccc(OC)cc4)CC3)c2C1=O,inactive: -5%
11,COc1ccc(Cn2c(=O)[nH]c3cc(C(=O)N4CCN(c5ccc(C(C)=O)cc5)CC4)ccc3c2=O)cc1,inactive: -6.8%
12,COCCn1c(C)cc(C(=O)Cn2nc(C(=O)O)c3ccccc3c2=O)c1C,inactive: 11.3%
13,COc1cccc(C(=O)N2CCC(N3CC(C)OC(C)C3)CC2)c1 (stereo not drawn),inactive: 5.06%
14,Cn1c(=O)c2c(ncn2CC(=O)N/N=C/c2ccc(Br)s2)n(C)c1=O,inactive: 2.12%
15,CCOc1cc(/C=N/NC(=O)CSc2cccc3cccnc23)ccc1O,inactive: -1.21%
16,Cc1ccc(NC(=S)N2CCCN(Cc3ccc(F)cc3)C2)c(C)c1,inactive: 8.3%
17,COc1cc(/C=N/N=C(\N)c2nonc2N)ccc1O,inactive: -13.5%
18,C[C@H](N)c1nnc(SCC(N)=O)o1,inactive: -12.8%
19,CCOC(=O)c1cc(C)sc1NC(=O)CN1CCN(C(=O)c2ccco2)CC1,inactive: 7.15%
20,CC1CCN(Cc2c(C(=O)N/N=C/c3cc(Cl)ccc3O)nnn2-c2nonc2N)CC1,inactive: 12.8%
21,N#Cc1ccc(NC(=O)c2cc(-c3cccs3)on2)cc1,inactive: -4.29%
22,COC(=O)/C(C#N)=C1/C=Cc2ccccc2N1,inactive: 22.7%
23,COc1ccc(CC(=O)Nc2nc3n(n2)C(c2ccccc2)CC(=O)N3)cc1OC (stereo not drawn),inactive: -4.85%
24,NC(=O)c1ccc(S(=O)(=O)N2CCSCC2)cc1,inactive: 4.58%
25,Oc1ccc(/C=N/Nc2cc(N3CCOCC3)nc(N3CCOCC3)n2)cc1O,inactive: 3.89%
26,Cc1ccc(-c2ccc(CO)o2)cc1N,inactive: 16.3%

row,SMILES,growth rescue (activation)
1,Cn1c(=O)c2[nH]c(N3CCN(c4cccc(O)c4)CC3)nc2n(C)c1=O,inactive: 9.03%
2,Cc1onc(-c2c(F)cccc2Cl)c1C(=O)NC1CCCCCC1,inactive: 8.68%
3,O=C(Nc1ccc2c(c1)OCO2)c1ccc2nc([C@@H]3O[C@H](CO)[C@H](O)[C@H](O)[C@H]3O)[nH]c2c1,inactive: -9.3%
4,CC(=O)c1ccc(NC(=O)C2CCCN(S(=O)(=O)c3c(C)[nH]c(=O)[nH]c3=O)C2)cc1 (stereo not drawn),inactive: -2.51%
5,CCc1ccc(CN(C)CC(=O)Nc2ccccc2[N+](=O)[O-])cc1,inactive: 19.7%
6,CN(C)CC1CCCCC1OC(=O)c1ccc(S(=O)(=O)N(C)c2ccccc2)cc1 (stereo not drawn),inactive: 1.8%
7,COCCNC(=O)CCn1nc(-c2ccc(C)cc2)c2ccccc2c1=O,inactive: 10.2%
8,CC1(C)C(C(=O)O)N2C(=O)C(NC(=O)Cc3ccccc3)C2S1=O (stereo not drawn),inactive: 5.76%
9,CCN(CC)S(=O)(=O)c1cccc(C(=O)N/N=C/c2cc(OC)c(O)c(OC)c2)c1,inactive: -26.8%
10,O=C(N/N=C/c1cccnc1)/C(=C\c1cccs1)NC(=O)c1ccccc1,inactive: 4.8%
11,Cc1cccc(N2CC(C(=O)O)CC2=O)c1C (stereo not drawn),inactive: 10.1%
12,CC(=O)Nc1ccc(C(=O)CN2C(=O)NC3(CCCCCC3)C2=O)c(F)c1,inactive: 19.5%
13,CC(C(N)=O)N1c2cccc3cccc(c23)S1(=O)=O (stereo not drawn),inactive: 0.127%
14,CCCCN(C(=O)CCC(=O)Nc1cc(C)on1)C(C(=O)NC1CCCC1)c1ccc(OCC)cc1 (stereo not drawn),inactive: 3.72%
15,C=CCN1C(=O)C(CC(=O)Nc2ccccc2)N(Cc2ccccn2)C1=S (stereo not drawn),inactive: 9.18%
16,CC(C)C1CC(CCN)(Cc2ccccc2)CCO1 (stereo not drawn),inactive: -33.3%
17,O=C(CN1CCC(NC(=O)Nc2ccccc2)CC1)Nc1ccccc1F,inactive: 0.367%
18,COC(=O)Cc1ccc(N(Cc2ccccc2F)S(=O)(=O)c2ccc(C)cc2)cc1,inactive: -10.8%
19,COc1ccc(NS(=O)(=O)c2cc(NC(=O)c3cnccn3)ccc2N2CCCC2)cc1,inactive: 11.6%
20,CCOC(=O)c1cc(C(=O)NN)c(=O)[nH]c1C,inactive: -8.26%
21,COc1cccc(C(c2ccccc2)N2C3CCC2CN(S(=O)(=O)c2ccc(F)cc2)CC3)c1 (stereo not drawn),inactive: 9.26%
22,O=C(NC(=S)N1CCN(c2ccc([N+](=O)[O-])cc2)CC1)c1ccc(F)cc1,inactive: 2.73%
23,CC(CC(=O)NCc1ccc(F)cc1)c1ccccc1 (stereo not drawn),inactive: 27%
24,NS(=O)(=O)c1ccc(CCNC(=O)c2cc(-c3cccs3)nc3ccccc23)cc1,inactive: -1.21%
25,CCOC(=O)c1c(NC(=O)c2ccc(C)c(C)c2)sc2c1CCCCC2,inactive: -2.53%
26,CCCCn1c(=O)c(CCC(=O)OCC(=O)Nc2cc(Cl)ccc2OC)nc2ccccc21,inactive: 9.41%

row,SMILES,growth rescue (activation)
1,CCOC(=O)c1cc2nc(Nc3ccc(OC)cc3)sc2s1,inactive: 17.8%
2,COc1ccc(-c2cc(C(=O)NCC3CCCO3)c3cc(C)ccc3n2)cc1 (stereo not drawn),inactive: -4.09%
3,CC(C)(C)NC(=O)C(c1ccc(O)cc1)N(Cc1ccccc1)C(=O)CCC(=O)Nc1nccs1 (stereo not drawn),inactive: 3.85%
4,CC(=O)Nc1ccc(-c2ccnc3c2CC(C(=O)NCCc2ccccc2)O3)cc1 (stereo not drawn),inactive: 10%
5,C/C(=N\Nc1ccc(C)c(Cl)c1)c1ccncc1,inactive: -10.4%
6,CCOc1ccc(S(=O)(=O)Nc2ccc3c(c2)n(C)c(=O)n3C)cc1,inactive: 6.61%
7,COc1cc2c(cc1OC)C(C(=O)Nc1ccc3c(c1)OCCO3)C1c3ccccc3CCN1C2=O (stereo not drawn),inactive: 20.8%
8,O=C(CSc1nnc2c(n1)[nH]c1ccccc12)N1CCCCC1,inactive: -2.24%
9,N#Cc1cc([N+](=O)[O-])ccc1N1CCCC1,inactive: 25.4%
10,COc1ccc(CCN2C(=O)CC(Cc3ccc(Br)cc3)C2=O)cc1OC (stereo not drawn),inactive: 17.1%
11,CCN(CC)CCN1c2ccccc2Sc2ccccc21,inactive: 6.37%
12,COc1ccc(Cl)cc1C(=O)Nc1ccc(OCC(=O)N2CCOCC2)cc1,inactive: -3.93%
13,O=C(Nc1ccccc1)N1CCCc2ccccc21,inactive: 29.3%
14,OC1CCN(c2cc(-c3ccccc3)nc3cc(-c4ccc(F)cc4)nn23)CC1,inactive: 21.1%
15,CC(CC(=O)Nc1ccc(Cl)c(S(=O)(=O)N2CCOCC2)c1)c1ccccc1 (stereo not drawn),inactive: 11.6%
16,Cc1cc(C(=O)Nc2sccc2C(N)=O)c(C)o1,inactive: -27.9%
17,Cc1ccc(S(=O)(=O)N2CCCC2)cc1C(=O)NCc1ccccn1,inactive: 3.01%
18,CCc1ccc(C(=O)OCC(=O)c2c(N)n(CC(C)C)c(=O)n(C)c2=O)cc1,inactive: 8.62%
19,Cc1ccc(-c2n[nH]c(=O)c3ccccc23)cc1S(=O)(=O)NCC1CCCO1 (stereo not drawn),inactive: 2.73%
20,COc1cc(C(C(=O)NC2CCCC2)N(C(=O)c2snc(C(N)=O)c2N)c2ccccc2)cc(OC)c1OC (stereo not drawn),inactive: -7.62%
21,Cc1ccc(-c2noc(-c3nnn(CC(=O)Nc4cc(Cl)ccc4C)c3N)n2)cc1,inactive: 12.8%
22,O=C(CCS(=O)(=O)CCN1CCOCC1)NCNC(=O)CCS(=O)(=O)CCN1CCOCC1,inactive: 3.33%
23,COc1ccc(S(=O)(=O)N2CCN(C)CC2)cc1NC(=O)c1ccccc1F,inactive: 4.37%
24,CC(C)CC(=O)Nc1ccc(C(=O)Cn2nc(C(=O)O)c3ccccc3c2=O)cc1,inactive: 5.4%
25,CCC(C)NC(=O)COC(=O)c1cc([N+](=O)[O-])ccc1Sc1nc(C)cs1 (stereo not drawn),inactive: 8.19%
26,O=C(COC(=O)c1ccc(Cl)c(S(=O)(=O)N2CCCCCC2)c1)Nc1ccccc1,inactive: 28.6%

row,SMILES,growth rescue (activation)
1,COc1ccc(C2CC(=O)C=C(O)C2)cc1 (stereo not drawn),inactive: -17%
2,CCc1cccc(CC)c1NC(=O)COC(=O)CC1c2ccccc2CCN1S(=O)(=O)c1ccccc1 (stereo not drawn),inactive: 19%
3,CC1(C)C2CCC1(CS(=O)(=O)NC(CC(=O)O)c1cccc(Br)c1)C(=O)C2 (stereo not drawn),inactive: 2.92%
4,CCCS(=O)(=O)N1CCN(Cc2ccccc2[N+](=O)[O-])CC1,inactive: -5.03%
5,CCOc1ccc(-c2nnc(-c3ccncc3)o2)cc1OCC,inactive: -3.82%
6,COCCN(Cc1ccccc1)P(=O)(O)c1ccccc1OCC(=O)O,inactive: -0.471%
7,CCCCNC(=O)COC(=O)c1ccc(SC)cc1OC,inactive: 8.94%
8,CCc1cc2c(SCc3nc4sc(C(C)=O)c(C)c4c(=O)[nH]3)ncnc2s1,inactive: 5.59%
9,COc1ccc(C)cc1Nc1nc(N)c2cc(OC)c(OC)cc2n1,inactive: 3.56%
10,Cc1ccc(S(=O)(=O)N2CCN(c3ccc([N+](=O)[O-])c(Sc4nncn4C)c3)CC2)cc1,inactive: 0.784%
11,O=C(NCc1ccccc1F)C1CCCN(C(=O)Nc2ccc(F)cc2)C1 (stereo not drawn),inactive: -2.48%
12,C[C@H]1C(=O)N(C)CCN1Cc1cn(C)nc1-c1ccc(Oc2ccccc2)cc1,inactive: 7.31%
13,Cn1cc(CN2CCC(C(=O)N3CCCC3)CC2)c(-c2ccccc2F)n1,inactive: 3.82%
14,Cc1nn(-c2ccc(Cl)cc2)c2sc(C(=O)N3CCN(c4ccccn4)CC3)cc12,inactive: 30.8%
15,COc1ccc2cnn(-c3ccc(OC(F)(F)F)cc3)c(=O)c2c1OC,inactive: 11%
16,CCCOc1ccc(CSc2n[nH]c(C)n2)cc1,inactive: 11.6%
17,O=C(CCS(=O)(=O)c1ccccc1)Nc1ccc(S(=O)(=O)Nc2ncccn2)cc1,inactive: 13.7%
18,O=C(Nc1nccs1)c1c(O)c2c([nH]c1=O)CCCC2,inactive: -2.01%
19,CCCCOc1ccc(C(=O)N/C(=C/C=C/c2ccccc2)C(=O)N2CCOCC2)cc1,inactive: -12.5%
20,Cc1ccc(-n2nnnc2SC(C)C(=O)NCC(=O)Nc2ccc(F)c(F)c2F)c(C)c1 (stereo not drawn),inactive: 16.5%
21,Cc1ccc(OCC(=O)NCCCNC(=O)c2cnccn2)cc1C,inactive: 14.7%
22,O=S1(=O)N=C(N/N=C/c2ccc(Br)o2)c2ccccc21,inactive: 5.51%
23,COc1cc(C(=O)NC2CCCc3ccccc32)cc(OC)c1OC (stereo not drawn),inactive: 25%
24,COc1ccc(C(=O)Nc2ccccc2C(=O)Nc2cccnc2)cc1,inactive: -39.6%
25,CSc1ccc(S(=O)(=O)NC(C)c2ccccc2)cc1 (stereo not drawn),inactive: 16.7%
